Assay results: US10023601B2, “Hydrolysis resistant sialic acid derivatives and methods for their use” (The University of British Columbia, priority 2014, dated 2018)
Structures can show the parent of a compound that is named as a salt.

Biological target: Pmo188h (Pasteurella multocida, UniProt Q15KI8)
Format: biochemical
Settings: pH 8.5

Row | SMILES | transfer of donor to BODIPY-lactose (TLC)
1 | CC(=O)N[C@H]1[C@H]([C@H](F)[C@H](O)CO)O[C@](OP(=O)(O)OC[C@H]2O[C@@H](n3ccc(N)nc3=O)[C@H](O)[C@@H]2O)(C(=O)O)C[C@@H]1O [compound 14, 5-Acetamido-3,5,7-trideoxy-2-(hydrogen 5′-cytidylate)-7-fluoro-D-glycero-b-D-galacto-2-nonulopyranosidic acid diammonium salt] | mostly complete
2 | CC(=O)N[C@H]1[C@H]([C@H](O)[C@H](O)CO)O[C@](OP(=O)(O)OC[C@H]2O[C@@H](n3ccc(N)nc3=O)[C@H](O)[C@@H]2O)(C(=O)O)C[C@@H]1O [compound 16, CMP-NeuNAc, reference compound] | mostly complete
